# Measured values published in PMC4336329 (PLoS ONE, 2015).
# In all, about 310,000 compounds went through this assay and about 14,000 (4.5%) showed an effect of 50% or more. Effects have a minus sign here. This is one part of the list.
# Molecular target: human ether-à-go-go-related gene (hERG) potassium channel (human, UniProt Q12809)
# Experiment: primary screen, population patch clamp on CHO cells stably expressing hERG
# 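Also: peak tail current of the secondary pulse compared with the same well before compound.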
# Sequence of human ether-à-go-go-related gene (hERG) potassium channel (Q12809 whole entry, looked up): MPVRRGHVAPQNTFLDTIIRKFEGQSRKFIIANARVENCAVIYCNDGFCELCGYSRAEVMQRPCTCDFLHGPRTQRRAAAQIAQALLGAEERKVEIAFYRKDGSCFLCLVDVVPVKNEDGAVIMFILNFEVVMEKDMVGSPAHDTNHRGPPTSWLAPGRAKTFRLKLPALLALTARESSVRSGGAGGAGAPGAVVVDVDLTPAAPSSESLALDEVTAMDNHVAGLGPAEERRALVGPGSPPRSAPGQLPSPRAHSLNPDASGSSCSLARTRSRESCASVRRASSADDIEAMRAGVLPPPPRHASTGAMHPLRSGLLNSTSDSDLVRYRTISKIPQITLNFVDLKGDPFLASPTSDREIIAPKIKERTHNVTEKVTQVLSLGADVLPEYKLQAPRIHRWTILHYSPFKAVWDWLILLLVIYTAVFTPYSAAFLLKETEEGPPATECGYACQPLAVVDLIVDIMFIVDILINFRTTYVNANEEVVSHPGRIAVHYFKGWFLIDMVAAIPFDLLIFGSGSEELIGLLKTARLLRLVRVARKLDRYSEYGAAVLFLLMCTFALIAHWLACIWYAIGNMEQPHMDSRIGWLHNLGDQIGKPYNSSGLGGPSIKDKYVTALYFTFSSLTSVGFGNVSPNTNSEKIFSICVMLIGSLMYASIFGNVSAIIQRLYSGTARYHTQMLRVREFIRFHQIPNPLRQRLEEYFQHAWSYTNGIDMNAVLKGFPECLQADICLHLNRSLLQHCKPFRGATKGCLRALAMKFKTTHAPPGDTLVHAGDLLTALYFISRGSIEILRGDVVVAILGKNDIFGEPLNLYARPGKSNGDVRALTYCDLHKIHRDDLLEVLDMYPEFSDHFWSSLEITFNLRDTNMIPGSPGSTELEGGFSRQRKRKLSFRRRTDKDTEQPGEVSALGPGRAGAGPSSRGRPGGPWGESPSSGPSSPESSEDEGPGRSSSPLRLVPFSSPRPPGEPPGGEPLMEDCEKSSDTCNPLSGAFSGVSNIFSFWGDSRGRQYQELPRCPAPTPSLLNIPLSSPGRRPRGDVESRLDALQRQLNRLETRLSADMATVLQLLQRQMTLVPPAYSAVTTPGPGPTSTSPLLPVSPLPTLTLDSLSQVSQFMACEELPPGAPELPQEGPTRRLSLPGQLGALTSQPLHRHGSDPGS
row,Compound,"hERG current change (%, negative = inhibition) at 10uM [%]"
1,Cc1ccc(C2CC(C(F)(F)F)n3nc(C(=O)NCc4c(C)nn(C)c4C)c(Cl)c3N2)cc1 (centres unmarked),-40.1
2,Cc1ccc(NC(=O)CC2SC3=NCCCN3C2=O)c(C)c1 (centres unmarked),9.89
3,OCC1(Cc2ccc(F)cc2)CCCN(Cc2ccc(F)cc2Cl)C1 (centres unmarked),-2.59
4,C#CCOCCOCCOCCNc1nc(N2CCOCC2)nc(N2CCN(C(=O)CCCCCCCCCCNC(=O)[C@@H]([C@H](C)O)n3cc(C)nn3)CC2)n1,9.2
5,CC(C)N(C(=O)CSc1nnc(-c2ccc3c(c2)OCO3)n1C)C(C)C,-2.31
6,O=S(=O)(c1ccc(Cl)cc1)n1ccc(-c2cccc(OCc3c(F)cccc3Cl)c2)n1,6.56
7,O=C(O)CCn1c(Cc2ccccc2)nc2ccccc21,15.7
8,Cc1ccc(S(=O)(=O)N2CCOCC2)cc1NC(=O)COc1ccc2c(C)cc(=O)oc2c1,9.08
9,CCC1=C(OC(=O)N(CC)CC)N2C(=O)OC(=NCCOC)[C@]2(Cc2ccccc2)[C@H]2C1=CC[C@H]1C(=O)N(CC(=O)OC)C(=O)[C@H]12,-10.3
10,CNS(=O)(=O)c1cccc(C(=O)OCc2csc(-c3ccccc3)n2)c1,-6
11,COc1ccc(/C(O)=C2\C(=O)C(=O)N(Cc3ccco3)C2c2cc(OC)ccc2OC)cc1 (centres unmarked),12.3
12,NC(=O)CSc1nnc(-c2ccccc2Br)n1-c1cccc(C(F)(F)F)c1,-11.9
13,CSCCC(NC(=O)c1ccc(Cl)cc1)C(=O)OCC(=O)N1CCCC1=O (centres unmarked),-2.69
14,O=[N+]([O-])c1ccccc1NC(=S)N/N=C/c1ccc(O)c(O)c1,10
15,CN1CCCC(OC(=O)c2cc(Cl)cc(Cl)c2)C1.Cl (centres unmarked),-43.4
16,CCOC(=O)c1snc(C(=O)NC2CCCCC2)c1N,-6.13
17,c1ccc(Cc2noc(CN3CCN(C4CCc5ccccc5C4)CC3)n2)cc1 (centres unmarked),-81.2
18,O=C(c1ccccc1)N1CCN(C(=O)c2cc3ccccc3o2)CC1,-23.8
19,CCOc1ccc(CCNC(=O)COC(=O)c2cc([N+](=O)[O-])ccc2N2CCOCC2)cc1OCC,-24.7
20,c1coc(-c2nnc3sc(C4CCCCC4)nn23)c1,-46.9
21,N=c1oc2ccccc2cc1C(=O)Nc1cccc(F)c1,20
22,Cc1cc(NS(=O)(=O)c2ccc(NC(=O)/C=C/c3c(F)cccc3Cl)cc2)nc(C)n1,19.7

row,Compound,"hERG current change (%, negative = inhibition) at 10uM [%]"
1,Cc1cccc(/C=C/c2onc(C)c2[N+](=O)[O-])n1,6.94
2,CC(=O)Nc1sc2c(c1C#N)CCCCC2,15
3,Cc1ccccc1NC(=O)Cc1nc(COC(=O)COc2ccccc2C(C)C)cs1,-17.2
4,O=C(OCC1CC(c2ccccc2)=NO1)c1ccc(Br)cc1 (centres unmarked),17.5
5,CCOC(=O)N1CCN(C(=O)CCc2ccccc2)CC1,5.12
6,Cc1cnn(-c2cc(N/N=C/c3ccc(F)cc3)ncn2)c1,5.69
7,COc1ccc(C)cc1COC(=O)c1[nH]c(C)c(C(C)=O)c1C,-1.51
8,CC(C)c1ccc(NC(=O)CSc2n[nH]c(=O)n2-c2cccnc2)cc1,5.5
9,Nc1nc(Nc2ccccc2)nc(NCc2ccccc2)c1[N+](=O)[O-],9.27
10,CN(Cc1ccccc1)C(=O)CSc1n[nH]c(N)n1,4.21
11,CCOc1ccc2[nH]c3c(NCCC(C)C)ncnc3c2c1,7.2
12,Cc1csc(NC(=O)CSc2nnc(NC(=O)COc3ccccc3)s2)n1,12.3
13,CCN(C(=O)Cc1c(C(=O)O)n(CC)c2ccccc12)c1cccc(C(F)(F)F)c1,13.1
14,COc1ccc(/C=C2\SC(=S)N(CCC(=O)Nc3cccc(O)c3)C2=O)cc1OC,14.5
15,COc1ccc(C(=O)N/C(=C/c2ccc(Cl)cc2)C(=O)Nc2ccc(C(=O)O)cc2)cc1,11.4
16,Cc1coc2c1c(C)cc1oc(=O)c(CC(=O)N[C@H](C(=O)O)C(C)C)c(C)c12,12.4
17,CC(=O)Nc1ccccc1NC(=O)c1ccccc1,14.5
18,Cc1cc(C)c2nc(N(CCCN(C)C)C(=O)c3ccc4c(c3)CCCC4)sc2c1.Cl,-3.72
19,CCNC(=O)c1cccc(NC(=O)CC2SC(N3CCCCC3)=NC2=O)c1 (centres unmarked),15.3
20,COc1cc(OC)cc(C(=O)NCC(=O)NCC(c2ccco2)N2CCCCC2)c1 (centres unmarked),11.5
21,CCS(=O)(=O)Nc1ccc(C(=O)CC2(O)C(=O)Nc3ccc(Br)cc32)cc1 (centres unmarked),19.5
22,CCOC(=O)c1cc2c(nc1N)CCCC2,3.35

row,Compound,"hERG current change (%, negative = inhibition) at 10uM [%]"
1,O=C(NCCN1CCN(Cc2ccccc2)CC1)c1cc2c(=O)[nH]c3ccccc3c2s1,-4.5
2,O=C(NC1CCCCCC1)C1CCCN1S(=O)(=O)c1cccc2cccnc12 (centres unmarked),4.56
3,Cc1cc(NC(=O)CSC2=NCCS2)no1,5.17
4,CN(C(=O)CSc1nc2cc(C(=O)O)ccc2c(=O)n1Cc1ccccc1)C1CCS(=O)(=O)C1 (centres unmarked),37.8
5,O=C(c1ccc(Br)o1)N(c1ccccn1)C1CCCCC1,-10.9
6,Cc1ccc(F)cc1NC(=O)CSc1nnc(CNC(=O)c2ccco2)n1C,-9.47
7,O=C(NC(=S)NCCc1ccccn1)c1ccco1,17.4
8,CCOc1ccc(N(CC(=O)N2CCCCCC2)S(C)(=O)=O)cc1,14.7
9,CCn1cc(CNC(=O)C2CCC(=O)N(C3CCCCCC3)C2)cn1 (centres unmarked),15.1
10,O=C(Nc1ccc(F)c([N+](=O)[O-])c1)C1CC(=O)N(Cc2ccccc2)C1 (centres unmarked),-34.4
11,Cl.NC(=O)c1c(NC(=O)Cc2ccccc2)sc2c1CCN(Cc1ccccc1)C2,7.96
12,COc1ccc(-c2ccc(C)cc2)cc1[C@H]1[C@H]2C=CC[C@@H](C)[C@@H]2C(=O)N1Cc1ccccc1,5.42
13,CN(C)c1ccnc(Nc2ccccc2)c1C#N,5.53
14,Cc1ccc(S(=O)(=O)Oc2cc(N)c3c(n2)CCC3)cc1,18.8
15,CS(=O)(=O)c1ccc(C2=C(c3ccccc3)C(=O)OC2)cc1,-13.3
16,CC1(C)CC(=O)C(C=NCCN2CCN(C(=S)Nc3ccc(F)cc3)CC2)=C(O)C1,-27.8
17,COc1ccccc1C/C(N)=N/O,3.69
18,CCCC1=Nc2cc(C(=O)NCCCOCC)ccc2Sc2ccccc21,-0.882
19,O=C(Oc1c(-c2ccccc2)c(=O)n2c3c(cccc13)CC2)c1ccc(Cl)cc1,4.16
20,Cc1c(C(=O)OC(C)C(C)C[N+](C)(C)C)oc2ccccc12.[I-] (centres unmarked),10.2
21,Cn1nc(Oc2nc(N3CCOCC3)nc(N3CCOCC3)n2)ccc1=O,-8.79
22,CCOc1ccc(N(CC(=O)N/N=C/c2ccccn2)S(=O)(=O)c2ccc(Cl)cc2)cc1,-10.4

row,Compound,"hERG current change (%, negative = inhibition) at 10uM [%]"
1,COc1cc(C(=O)Oc2c(CN3CCOCC3)cc(Cl)c3cccnc23)cc(OC)c1OC,-33.6
2,C/C=N\NC(=O)CNC(=O)CNC(=O)c1ccccc1,14.4
3,CC(/C=N/NC(=O)CN1CCN(Cc2ccc(Cl)cc2)CC1)=C\c1ccco1,-69.2
4,CCCSc1oc(-c2ccco2)nc1S(=O)(=O)c1ccccc1,-29.1
5,Cn1c(=O)c2[nH]c(-c3ccccc3Cl)c(O)c2n(C)c1=O,-1.88
6,CCOC(=O)C1C(=O)N(C(=O)c2ccc(OC)cc2)CC1c1ccccc1 (centres unmarked),14.9
7,COc1ccccc1N1CCN(/N=C/c2ccc(O)c(O)c2)CC1,2.89
8,Cc1nn(CCC(N)=O)c2nc(-c3cccs3)cc(C(F)(F)F)c12,-6.5
9,CCOC(=O)c1ccc(CSc2nnc(C)n2N)o1,12.6
10,CC1(C(=O)NC2CCCCCCC2)CCC(=O)N1Cc1ccco1 (centres unmarked),5.05
11,COc1ccccc1N1CCN(C(=O)Nc2cccc(Cl)c2)CC1,-28.2
12,CCn1c(C)nnc1SCC(=O)Nc1cccc(C(F)(F)F)c1,12.4
13,Cc1cc(C)c(S(=O)(=O)NC(CC(=O)O)c2cccc([N+](=O)[O-])c2)c(C)c1 (centres unmarked),18.6
14,CC(=O)Nc1ccc(Nc2ccc(S(=O)(=O)C(F)(F)F)cc2[N+](=O)[O-])cc1,-9.38
15,CN(C)c1ccc(NS(=O)(=O)c2cccc(Cl)c2)cc1,11.6
16,O=c1c(-c2ccccc2)c[nH]n1-c1cccc([N+](=O)[O-])c1,22.6
17,O=C(/C=N/O)Nc1ccc(F)cc1,-0.933
18,Fc1ccccc1CNC(=S)Nc1cccc(C(F)(F)F)c1,-4.64
19,CCNC(=O)c1sccc1-n1cccc1,15.6
20,CCN(CC)c1ccc(NC(=O)c2[nH]c(C)c(C(C)=O)c2C)c(C)c1,12.3
